# The supplement of paper PMC10126150
# Sequences with one replicate were seen in a single cluster, so their values are uncertain.
# Test system: ATP
# Assay: switch fluorescence ratio, 500 uM ATP over buffer (Cy3 cluster intensity, sum of 5 cycles each) (fold (ratio)); higher = stronger signal-on switching upon ATP binding; sequences stand for … in TCGTCGGCAGCGTCAGATGTGTATAAGAGACAGTTTTTTTTTTTTTTTTTTTTTTTTT…TC
# Conditions: aptamer strand: ATP DNA aptamer (quencher-CACCTGGGGGAGTATTGCGGAGGAAGG + anchor), 100 nM annealed; ATP concentration: 500 uM; one replicate
# How it was run: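 Five buffer/ATP imaging cycles were run on Cy3-labelled switching-strand clusters on a modified Illumina MiSeq flow-cell, with NaOH stripping and re-annealing between cycles. In each cycle, clusters annealed to 100 nM quencher-labelled ATP aptamer were imaged in selection buffer, then after 15 min with 500 uM ATP at 22 °C. Per cluster, the fluorescence ratio is summed target-cycle over summed buffer-cycle Cy3 intensity, averaged per switch-domain sequence. Only clusters within 100-1000 RFU were kept.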
# 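Also: ATP exposure 15 min at 22 °C before imaging.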
row,Sequence,switch fluorescence ratio
1,ACTCCGTTCA,2.05
2,TCTTACTTTA,1.02
3,ACTTGTCGCT,1.03
4,CCTGTTGCCG,1.04
5,ACCAATTAAT,0.97
6,TAAATATGTA,0.99
7,GCATACCATG,0.973
8,CCGTCGAAGC,1.16
9,TGTTTGGTAC,1.03
10,TGTTTGTAC,1.07
11,TCTAGCTAAC,1.42
12,TCAAGATGAA,0.955
13,AGCACATGGC,1.01
14,CACAGGGTCC,1.03
15,CGAAACGAGG,1.02
16,GTTTGCGCCT,1.01
17,CGAGTATTCG,0.963
18,CTGAGCGCAC,2.08
19,CAAAGTATTT,0.967
20,TCTTTCCCGC,2.18
21,AAGAACAGGG,1.02
22,CTTTTATAGC,1.03
23,CCTTGATGTA,0.97
24,CCAGAAGGTA,0.996
25,CATGCTTAAT,1

row,Sequence,switch fluorescence ratio
1,CCTGACGGGA,0.965
2,GAGTCCTATA,0.999
3,GATCCCTAAT,1.03
4,AATGGATTCA,1.11
5,TAAAGTCCTG,0.975
6,CTTGGCAGCG,0.992
7,CGAAAGTGGT,0.999
8,CTTATGGGTC,1
9,GTTGGATCAC,1
10,TGTTGAGGAT,0.997
11,AACTATGGA,1
12,AGGTAGGTCG,0.906
13,TTGAGCATCA,1.01
14,ATTACGTAAT,1.03
15,CGCTCCACTG,1.14
16,AGCTGCACGA,1.08
17,ATCCCCCGTT,1.07
18,CGTTAGTGGT,0.959
19,ATTCTCCTTA,1.02
20,AAAGTAGCTT,1.03
21,GAGGGTCGGC,1.01
22,AAAATGACTG,1
23,TACATCTGC,1.05
24,TCGGGGAACA,1.03
25,GTGTAATGAA,1.03

row,Sequence,switch fluorescence ratio
1,GCGTCTAGCT,1.01
2,CCAAACGAGG,0.98
3,ATCTAGCAT,1.02
4,TTGGTGATCG,0.935
5,CCGGGAAGAC,3.58
6,TTCTGCATAT,1.27
7,GTCAACGAAG,0.984
8,CTGGTTATGT,0.973
9,ACCTCCGGT,1.07
10,CGATTCGATA,0.995
11,AGGGCAACGT,1
12,AAAATGCCTA,1.01
13,CTACATCCTG,0.948
14,GGCATAAGAA,0.977
15,GGGTGTAACC,1.03
16,GATCTGGGA,1
17,GTCACATGAA,1.01
18,GGATATGAGA,1.01
19,TCTTACGA,1.02
20,CTAATAATCT,1.03
21,AAAAGTTCAT,1.01
22,TTGCCGGTAC,2.16
23,ATTTGTGCAT,1.01
24,CTCTATTTTA,0.971
25,GGAAGGGAGT,1.06

row,Sequence,switch fluorescence ratio
1,AGCTGGTGAT,1.03
2,TGCGATTTAT,0.987
3,TGCTGATGAG,0.985
4,GGGGCCAAGA,0.991
5,AGCCAATGAA,1.03
6,CCGTTGGCGC,1.04
7,AATTCCGTAT,1.06
8,TTTGTGTCG,1.01
9,AAATGATGAG,0.997
10,TATAACTACT,1.02
11,TTCACGTCTC,1.03
12,AAGTCCGAGG,1.03
13,AATACTCTTT,1.04
14,GATTCGGTCC,1.02
15,TTCTCTGCCT,1.26
16,AAAGCAGCGC,0.993
17,TCCCACTTTT,1.02
18,GAATGCAGGG,0.959
19,TATACCAATT,1.12
20,CCACAAAGCT,1.31
21,TCCAATCGAC,1.29
22,TTCTTCAATT,1
23,CGGCACCGGT,1.63
24,GCCAGGGAGA,1.06
25,ATCATAGTTC,1.01

row,Sequence,switch fluorescence ratio
1,AAATCAGTGC,1.12
2,TTGCCTATGG,1.03
3,ACTGGAACTT,1.08
4,GAAGCAGTAG,1.81
5,AATCGATAAT,1.07
6,TCGTTTGGGA,1.02
7,CGCAGGGCTG,1.03
8,TTTAAAGAAG,1.06
9,TGTGGTTGGC,0.984
10,TGTAATGTCA,0.975
11,GGGCTCATTG,0.967
12,GTGCTTACGT,0.979
13,GGGGTGCAAA,0.969
14,GAAAGTATCG,0.968
15,TAAAGAACA,0.989
16,CCTTGCGTCC,1.48
17,CCCAGACTTC,1.04
18,CAGAACATAG,1.01
19,TAATTAACTA,1.02
20,TTAGGGTGA,0.989
21,AATTCAGCGT,0.946
22,TAGTACGGTC,0.98
23,TATGTCGGTG,0.989
24,AAGGCCCCGA,1.01
25,CGGCCGGTA,1.03

row,Sequence,switch fluorescence ratio
1,GTGGTAAAAT,0.998
2,TGGTCCTAAG,0.982
3,TGCGAAGGTA,0.958
4,CAAGGGACCG,0.885
5,TTTGTACGGC,1.01
6,CTCTACACCG,1.07
7,TTTTTTCCAT,0.985
8,CAGGATAATC,1.34
9,CCGTATTGGA,0.993
10,GAAACCGTTT,1.04
11,ATTTAGAGTT,1.01
12,TGACCTGTTC,1.04
13,CATAAAAAGC,0.991
14,AGCATGTAGC,1.07
15,ACGCCTAATC,1.15
16,GAGCGCCCTC,1.06
17,ACTGTCATCG,1.09
18,TACATTCCGT,1.17
19,CGGATAATGA,0.99
20,GGCAGTAACG,1.08
21,ATCATAATCG,1.06
22,GAAGGAGTAG,1.03
23,AACTCCGTTG,1.06
24,GTGGCGGTGG,0.993
25,CAACTCGCCC,1.13

row,Sequence,switch fluorescence ratio
1,GATGTGCCTA,1.01
2,GGTCTAGGCT,0.969
3,CAGCTATAAC,2.68
4,GAACTATAAC,1.05
5,GCATTACCAG,1.09
6,GAACGTATAA,1.26
7,CATGGAGCGC,1.04
8,TAAATGCATG,1.02
9,CTTAGTTTGT,1.03
10,GATCCTCAAC,1.01
11,CGCTCGGATG,1.04
12,TTATGGCTTA,0.963
13,TTGAAACT,1.03
14,CAATGTGGTC,1.03
15,TCTCGACCCC,1.09
16,TAACGTGCTG,1.04
17,AGGTCGAAGA,0.932
18,AAAGTTGGTG,0.966
19,TAGGGCTTCA,1.03
20,CATGGTAGAT,1.01
21,TACACTCTAG,0.998
22,TTGGAACCAC,1.09
23,CGGACGAA,0.957
24,ACATGAGGAT,1.05
25,CAAATTTTGA,1.03

row,Sequence,switch fluorescence ratio
1,GGCGTGAGTT,0.979
2,ATATTGGTTC,1
3,CTTCATGTCG,0.959
4,AGACGAATGT,0.988
5,ATATCGGAGT,1.01
6,CGAGCAGAAC,4.33
7,CATTCTCGTA,1.04
8,TTGGATATCT,1.02
9,CTTGAGGCGT,0.977
10,CTTAACCTCA,1.01
11,GATGCTATAG,1.38
12,GTATTGATGC,1.03
13,GGGGTGACTT,1
14,CACTATTATC,0.978
15,TCTAAGGAGC,1.05
16,CGTGAGTCTA,1.42
17,GTCTGCAGCG,1.01
18,CGTTAACGGG,1.04
19,TAAACGAAAT,1.02
20,GTTCAGTTAC,1.08
21,TCGATGAGCT,1.03
22,GGGCAACACC,1.02
23,ACGAACTTAA,1.28
24,GCCGTCTTGT,0.981
25,GGTGGATGCA,0.978
